Laboratory results from PubChem BioAssay AID488969 (Vanderbilt High Throughput Screening Facility, 2010).
Over roughly 110,000 compounds, “z-score” has its median near -0.1; the highest 2% begin near 2. The list shows a part of the results. The source made the active and inactive calls.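 The calls were made as follows: active = z-score in the third read window above 3 or below -3; inactive = the rest.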

molecular target: Metabotropic glutamate receptor 8 (Rattus norvegicus) (UniProt P70579); experiment: mGluR8 Gi/Go-coupled signaling modulation – cell-based, rat, thallium flux, HTS, primary screen (AID 488969); conditions: HEK293 rat mGluR8, GIRK (G protein-gated inwardly rectifying potassium channel) thallium flux, FluoZin2; at 10 µM; stronger effect = higher value; submaximal glutamate (EC20) added with thallium
Sequence of UniProt P70579 (P70579 whole entry, looked up): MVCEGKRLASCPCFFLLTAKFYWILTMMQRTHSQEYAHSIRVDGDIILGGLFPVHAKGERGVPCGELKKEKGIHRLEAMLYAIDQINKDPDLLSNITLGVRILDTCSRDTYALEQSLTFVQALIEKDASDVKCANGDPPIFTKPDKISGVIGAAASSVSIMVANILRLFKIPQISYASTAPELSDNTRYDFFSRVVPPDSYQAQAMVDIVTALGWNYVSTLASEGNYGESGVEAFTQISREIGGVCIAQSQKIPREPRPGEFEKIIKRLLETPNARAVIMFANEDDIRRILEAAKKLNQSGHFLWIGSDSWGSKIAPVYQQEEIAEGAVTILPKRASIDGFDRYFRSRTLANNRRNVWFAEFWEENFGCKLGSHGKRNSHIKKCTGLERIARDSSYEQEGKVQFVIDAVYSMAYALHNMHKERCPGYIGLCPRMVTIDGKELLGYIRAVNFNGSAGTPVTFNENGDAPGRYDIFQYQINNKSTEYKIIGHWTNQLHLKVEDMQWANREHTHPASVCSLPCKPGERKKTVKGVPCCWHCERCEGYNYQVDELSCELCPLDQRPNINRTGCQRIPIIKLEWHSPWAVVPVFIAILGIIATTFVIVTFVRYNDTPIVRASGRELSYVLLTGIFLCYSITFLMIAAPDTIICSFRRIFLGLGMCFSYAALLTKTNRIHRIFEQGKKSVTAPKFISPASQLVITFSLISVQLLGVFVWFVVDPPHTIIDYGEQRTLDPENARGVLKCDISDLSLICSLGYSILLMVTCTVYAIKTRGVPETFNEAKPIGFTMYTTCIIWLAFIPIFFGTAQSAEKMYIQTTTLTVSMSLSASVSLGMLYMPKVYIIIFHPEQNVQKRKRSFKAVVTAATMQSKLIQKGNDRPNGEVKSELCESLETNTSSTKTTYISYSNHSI

First: CC1CCC2C(=O)N(c3cccc(OS(=O)(=O)c4ccccc4)c3)C(=O)C2C1 (stereo unspecified)
Second: CN(c1ccccc1C(N)=O)S(=O)(=O)c1ccccc1
The z-score of the first is lower: -0.479 for the first, 0.25 for the second.

Going from `CS(=O)(=O)N(CCC(=O)O)Cc1ccccc1` to `Cc1ccc(/C=N/NC(=O)CNC(=O)Cc2ccccc2)o1`, the z-score rises from -0.0244 to 0.985.

First: O=C(c1ccccc1)N1CCN2C(=O)c3ccccc3C12c1ccc(Cl)cc1 (stereo unspecified)
Second: O=C1c2ccccc2C(=O)N1c1ccc(-c2nc3ccccc3o2)cc1
The z-score of the first is lower: -0.159 for the first, 0.248 for the second.

First: O=C1NCCCc2c1oc1ccc(O)cc21
Second: Cn1c(=O)oc2cc(S(=O)(=O)NC3CCCc4ccccc43)ccc21 (stereo unspecified)
The z-score of the first is lower: -0.602 for the first, 0.254 for the second.

Compared with `COc1ccc2nc(SCC(=O)Nc3ccc4c(c3)OCCO4)[nH]c2c1`, `COc1ccc(NC(=O)CSc2nc(C)cc(C)n2)cc1` is higher in z-score: -0.486 for the first, 0.0927 for the second.

First: Cc1ccc(S(=O)(=O)N2CCN(C(=O)CSc3nnc(C)s3)C2)cc1
Second: Cc1ccc(S(=O)(=O)N2CCOCC2)cc1NC(=O)CSc1nnc2cc(C)c3ccccc3n12
The z-score of the first is higher: -0.615 for the first, -1.43 for the second.

Going from `OC(COc1ccc(OCC(O)CN2CCCCCC2)cc1)CN1CCCCCC1` (stereo unspecified) to `c1ccc(Oc2cccc(CN3CCCCC3)c2)cc1`, the z-score falls from -0.0132 to -0.282.

Compared with `COc1cccc2c(=O)n(CC(=O)N3CCc4ccccc43)ccc12`, `CCn1c(CNc2ccc(OC)cc2)nnc1SCC(=O)N1CCCc2ccccc21` is higher in z-score: -0.372 for the first, 0.461 for the second.

Going from `O=C(N1CCOCC1)N(Cc1ccco1)CC1CCCO1` (stereo unspecified) to `O=C(N1CCOCC1)N1CCN(c2nc(-c3ccc(F)cc3)cs2)CC1`, the z-score rises from -0.533 to 0.208.

First: COc1cc(C)c(S(=O)(=O)N2CCN(C)CC2)cc1C
Second: CN1CCN(CCCNC(=O)c2cc3c(=O)n(C)c4ccccc4c3s2)CC1
The z-score of the first is lower: -0.109 for the first, 1.89 for the second.

Going from `COc1ccc(OC)c(Nc2cc(-c3ccccc3)nc(N)n2)c1` to `COc1ccc(-c2nc(-c3ccccc3)nc(Cl)c2C#N)cc1`, the z-score rises from -1.96 to -0.171.

First: c1ccc(CSc2nnc(-c3sccc3-n3cccc3)o2)cc1
Second: O=C(O)c1cccc(CSc2nnc(COc3ccccc3)o2)c1
The z-score of the first is higher: -0.485 for the first, -0.828 for the second.

First: CCN(CC(=O)Nc1ccc([N+](=O)[O-])cc1OC)c1ccccc1
Second: COc1ccc(OC)c(NC(=O)CSc2nnnn2-c2ccccc2F)c1
The z-score of the first is higher: -0.139 for the first, -0.231 for the second.

Compared with `CCN(CC)C(=O)CC(c1ccc(F)cc1)c1ccco1` (stereo unspecified), `O=C(CC(c1ccccc1)c1ccccc1O)NCc1ccco1` (stereo unspecified) is higher in z-score: -0.394 for the first, -0.155 for the second.

Going from `CCOc1ccc(C(C(=O)Nc2ccc(F)cc2)N(C(=O)Cn2nnc3ccccc32)C2CC2)cc1` (stereo unspecified) to `O=C(Cc1ccc(NS(=O)(=O)c2ccc(F)cc2)cc1)NCc1ccccc1`, the z-score falls from -0.0744 to -0.136.

Compared with `CCn1c2ccccc2c2cc(NC(=O)Cc3ccc(S(=O)(=O)N4CCOCC4)s3)ccc21`, `CS(=O)(=O)Nc1ccc(C(=O)NCc2ccc3c(c2)OCO3)cc1` is lower in z-score: 0.674 for the first, -0.182 for the second.

Compared with `CC1(C)Cc2c(sc3c2C2=NCCN2C=N3)CO1`, `Cc1cc(C)n(C2=NS(=O)(=O)c3ccccc32)n1` is lower in z-score: 0.0579 for the first, -0.0598 for the second.

Going from `COc1ccccc1N1CCN(CC(=O)Nc2sccc2C#N)CC1` to `CC1CCCCN1C(=O)Cn1cc(C=O)c2ccccc21` (stereo unspecified), the z-score falls from 0.31 to 0.00317.

Going from `COc1ccc(CCCC(=O)NC2CCCCC2)cc1` to `COc1cc2[nH]c(=O)n(Cc3ccc(C(=O)NC4CCCC4)cc3)c(=O)c2cc1OC`, the z-score rises from -0.301 to 0.0931.

First: COc1ccc(C)cc1-n1nnnc1SCC(=O)NNC(=O)c1ccc([N+](=O)[O-])cc1
Second: C=CCn1c(CCNC(=O)c2cccs2)nnc1SCC(=O)Nc1cccc(Cl)c1C
The z-score of the first is higher: -0.112 for the first, -0.184 for the second.

Going from `COc1ccc(/C=N/n2c(SC)nnc(C(C)(C)C)c2=O)cc1` to `Brc1ccc(Oc2nnnn2-c2ccccc2)cc1`, the z-score rises from -0.584 to 0.0613.

Compared with `Cc1cc(C)nc(N=Nc2c(O)n(Cc3ccc(Cl)cc3)c3ccccc23)n1`, `O=C(CSc1ncnc2scc(-c3ccc(Cl)cc3)c12)NCc1ccc2c(c1)OCO2` is lower in z-score: 0.0163 for the first, -0.262 for the second.

First: CCCCNc1nc(-c2ccccc2)c(C(=O)OCC)cc1C#N
Second: Cc1ccc(NC2=NCC(=O)N2CCc2ccccc2)cc1C
The z-score of the first is higher: -0.076 for the first, -0.657 for the second.

Compared with `Cc1cc(NC(=O)CCC(=O)N(CC(=O)NCC2CCCO2)c2ccccc2C)no1` (stereo unspecified), `CCOC(=O)C(=O)/C(=C\N(C)C)c1onc(-c2ccccc2Cl)c1C(=O)OC` is higher in z-score: -0.592 for the first, 0.152 for the second.

First: COC(=O)N/N=C/c1ccc(-c2cc(Cl)cc(Cl)c2)o1
Second: Cc1occc1C(=O)N/N=C/c1cccnc1
The z-score of the first is lower: -2.64 for the first, 0.302 for the second.

First: CCc1nnc(NC(=O)c2ccc(S(=O)(=O)N(CC(C)C)CC(C)C)cc2)o1
Second: Cc1ccc(S(=O)(=O)NNC(=O)Nc2ccc(Cl)cc2)cc1
The z-score of the first is higher: 0.456 for the first, -0.126 for the second.

Going from `O=C1Cc2ccccc2N1c1c(Cl)cccc1Cl` to `O=c1c2ccccc2c(-c2ccccc2)nn1-c1ccc(Cl)c(Cl)c1`, the z-score falls from -0.114 to -0.224.

Going from `CC(NO)C(C)(C)NO` (stereo unspecified) to `CC(C)NC(=O)c1noc2cc([N+](=O)[O-])ccc12`, the z-score falls from 0.256 to 0.0562.

First: CC1(C)N([O-])C(c2cccs2)=C[N+]1=O
Second: CC1=NN(C(C#N)c2cccc([N+](=O)[O-])c2)C(C)(C)C1 (stereo unspecified)
The z-score of the first is higher: 0.211 for the first, -0.192 for the second.

Compared with `CC(OC(=O)c1ccc2c(c1)C(=O)N(Cc1ccncc1)C2=O)C(=O)Nc1cccc(Cl)c1Cl` (stereo unspecified), `Cc1ccc(C)c(NC(=O)C(Sc2nc3ccc(C)cc3[nH]2)c2ccccc2)c1` (stereo unspecified) is lower in z-score: 0.365 for the first, -0.188 for the second.

First: COc1cccc(OCc2nc3c4cnn(-c5ccccc5)c4ncn3n2)c1
Second: N#Cc1cccc(Oc2ccc(-c3cnc4ccccc4n3)cc2)c1C#N
The z-score of the first is lower: 0.0686 for the first, 0.258 for the second.

First: CN(C)c1cccc(NC(=O)C2(C)CC2(Cl)Cl)c1 (stereo unspecified)
Second: CC(=O)c1c(C)n(C)c2ccc(OC(=O)c3ccco3)cc12
The z-score of the first is lower: -0.194 for the first, 0.0386 for the second.

Going from `CCn1c(SCC(=O)NCc2ccco2)nc2c(c1=O)SC(C)C2` (stereo unspecified) to `Cn1c(C(=O)N2CCN(C(=O)c3ccco3)CC2)cc2c(=O)n3ccccc3nc21`, the z-score rises from -0.332 to 0.0164.

First: O=C(Nc1cccc(C(F)(F)F)c1)N1CCN(C(=O)Nc2cccc(C(F)(F)F)c2)CC1
Second: O=C(c1cnn2c(C(F)(F)F)cc(-c3ccc4c(c3)OCO4)nc12)N1CCCC1
The z-score of the first is higher: -0.185 for the first, -0.369 for the second.

Compared with `Clc1ccc(OCc2nc(-c3ccc(Br)o3)no2)cc1`, `NS(=O)(=O)c1ccc(CCNC(=O)COC(=O)CCSc2ccc(Cl)cc2)cc1` is higher in z-score: -0.414 for the first, 0.403 for the second.

In the case of `CCN(CC)c1ccc2cc(C=O)c(=O)oc2c1`, the z-score is reported as active: 17.6.
